Test results from US20210378240A1, “OXETANYLPHENOXYQUINOLINES AND ANALOGUES” (Bayer Aktiengesellschaft, priority 2018, published 2021).

Method: In table 1, the logP values were determined in accordance with EEC Directive 79/831 Annex V.A8 by HPLC (High Performance Liquid Chromatography) on a reversed-phase column (C 18), using the method to described below:
temperature: 40° C.; mobile phases: 0.1% aqueous formic acid and acetonitrile; linear gradient from 10% acetonitrile to 95% acetonitrile;
If more than one LogP value is available within the same method, all the values are given and separated by “;”.
Calibration was carried out using unbranched alkan-2-ones (comprising 3 to 16 carbon atoms) with known logP values (determination of the logP values by the retention times using linear interpolation between two successive alkanones). lambda-max-values were determined using UV-spectra from 200 nm to 400 nm and the peak values of the chromatographic signals.

SMILES	logP
CC1(c2ccccc2Cc2cc3ccccc3nc2O)COC1 [I.05]	2.50
CC1(c2ccccc2Cc2cnc3c(F)c(F)ccc3c2)COC1 [I.06]	3.17
CC1(c2ccccc2Cc2cnc3c(C(F)(F)F)cccc3c2)COC1 [I.07]	3.86
Cc1nc2c(F)c(F)ccc2cc1Oc1cccc(F)c1CN1CC(F)(F)C1 [I.08]	2.86
Cc1nc2c(F)c(F)ccc2cc1Oc1cccc(F)c1CN1CC(O)C1 [I.09]	1.44
Cc1nc2c(F)c(F)ccc2nc1Nc1cccc(F)c1CN1CC(F)(F)C1 [I.11]	4.64
Cc1nc2c(F)c(F)ccc2cc1Oc1cccc(F)c1C#CC1COC1 [I.12]	3.68
Cc1nc2c(F)c(F)ccc2cc1Nc1cccc(F)c1C#CC1COC1 [I.13]	3.69
Cc1nc2c(F)c(F)ccc2cc1Oc1cccc(F)c1[S+]([O-])C1COC1 (stereo not drawn) [I.16]	2.25
Cc1nc2c(F)c(F)ccc2cc1Oc1cccc(F)c1S(=O)(=O)C1COC1 [I.17]	2.59
Cc1nc2c(F)c(F)ccc2cc1Nc1cccc(F)c1N1CCC12COC2 [I.18]	4.02
O=Cc1c(Br)cccc1Nc1cnc2c(F)cccc2c1 [IV.06]	3.70
Clc1cccc(Cl)c1SC1COC1 [IX_A]	3.10
[O-][S+](c1c(Cl)cccc1Cl)C1COC1 (stereo not drawn) [IX_B]	1.45
O=S(=O)(c1c(Cl)cccc1Cl)C1COC1 [IX_D]	1.71
